Experimental data reported in the supplement of paper PMC4967469.

Legend:
Assay in all cases: Viability of human cancer cell lines after 72 h of drug (GDSC screen)
[1] = compound: c1ccc2c(CCNc3ccc(Nc4ccncc4)cc3)c[nH]c2c1 [JNJ-26854165]; settings: top dose 10 µM
Protocol: (§1)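 Human cancer cell lines in 384-well plates, medium with 10% serum, drug for 72 h over a 256-fold dose range (nine 2-fold or five 4-fold steps up to the top dose). Adherent lines were fixed and stained with the nucleic acid dye Syto60, suspension lines read with resazurin; signal relative to control wells, capped at 0 and 100%. One two-parameter sigmoid per drug and line, fitted in a mixed model over all curves with the slope shared within a line.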

[2] = compound: Cc1[nH]c(/C=C2\C(=O)Nc3ccc(S(=O)(=O)Cc4c(Cl)cccc4Cl)cc32)c(C)c1C(=O)N1CCC[C@@H]1CN1CCCC1 [PHA-665752]; settings: top dose 2 µM
Protocol: as §1

[3] = compound: Cc1sc2c(c1C)C(c1ccc(Cl)cc1)=N[C@@H](CC(=O)OC(C)(C)C)c1nnc(C)n1-2 [JQ1]
Protocol: as §1

[4] = compound: CC1(C)CNc2cc(NC(=O)c3cccnc3NCc3ccncc3)ccc21 [AMG-706]; settings: top dose 2 µM; top dose inferred
Protocol: as §1

[5] = compound: COCC[n+]1c2c(n(Cc3cnccn3)c1C)C(=O)c1ccccc1C2=O [YM155]; settings: top dose 5.12 µM
Protocol: as §1

[6] = compound: O=C(/C=C/c1cccc(S(=O)(=O)Nc2ccccc2)c1)NO [Belinostat]; settings: top dose 20 µM; top dose inferred
Protocol: as §1

[7] = compound: CN1CCN(c2ccc([N+](=O)[O-])c3no[n+]([O-])c23)CC1 [NSC-207895]; settings: top dose 20 µM; top dose inferred
Protocol: as §1

[8] = compound: CC(=O)O[C@@]12CO[C@@H]1C[C@H](O)[C@@]1(C)C(=O)[C@H](O)C3=C(C)[C@@H](OC(=O)[C@H](O)[C@@H](NC(=O)OC(C)(C)C)c4ccccc4)C[C@@](O)([C@@H](OC(=O)c4ccccc4)[C@H]21)C3(C)C [Docetaxel]; settings: top dose 0.0125 µM
Protocol: as §1

[9] = compound: OCCCNc1cc(-c2ccnc(Nc3cccc(Cl)c3)n2)ccn1 [CGP-60474]; settings: top dose 0.256 µM; top dose inferred
Protocol: as §1

[10] = compound: CCOc1nc(NC(=O)Cc2cc(OC)ccc2OC)cc(N)c1C#N [JNK Inhibitor VIII]; settings: top dose 10 µM; top dose inferred
Protocol: as §1

[11] = compound: COc1cc(N2CCC(N3CCN(C)CC3)CC2)ccc1Nc1ncc(Cl)c(Nc2ccccc2S(=O)(=O)C(C)C)n1 [NVP-TAE684]; settings: top dose 2 µM
Protocol: as §1

[12] = compound: Cc1ccc(C(=O)N(CCCN)[C@@H](c2nc3cc(Cl)ccc3c(=O)n2Cc2ccccc2)C(C)C)cc1 [SB-715992]; settings: top dose 0.128 µM; top dose inferred
Protocol: as §1

[13] = compound: COC(=O)[C@H](CCSC)NC(=O)c1ccc(NC[C@@H](N)CS)cc1-c1ccccc1 [FTI-277]; settings: top dose 1.024 µM; top dose inferred
Protocol: as §1

[14] = compound: C[C@]1(O)C[C@@H](c2nc(-c3ccc4ccc(-c5ccccc5)nc4c3)c3c(N)nccn32)C1 [OSI-906]; settings: top dose 2.56 µM; top dose inferred
Protocol: as §1

[15] = compound: CC1=C2C[C@H]3[C@@H](CC=C4C[C@@H](O)CC[C@@]43C)[C@@H]2CC[C@]12O[C@@H]1C[C@H](C)CN[C@H]1[C@H]2C [Cyclopamine]; settings: top dose 16 µM; top dose inferred
Protocol: as §1

[16] = top dose 1 µM, screen: GDSC drug entry 1218, top dose inferred
[17] = top dose 2.56 µM, screen: GDSC drug entry 163

Cell Line	AUC [1]	pIC50 [1]	AUC [2]	pIC50 [2]	AUC [3, 16]	pIC50 [3, 16]	AUC [3, 17]	pIC50 [3, 17]	AUC [4]	pIC50 [4]	AUC [5]	pIC50 [5]	AUC [6]	pIC50 [6]	AUC [7]	pIC50 [7]	AUC [8]	pIC50 [8]	AUC [9]	pIC50 [9]	AUC [10]	pIC50 [10]	AUC [11]	pIC50 [11]	AUC [12]	pIC50 [12]	AUC [13]	pIC50 [13]	AUC [14]	pIC50 [14]	AUC [15]	pIC50 [15]
LS-411N (large intestine, adherent)	0.902	< 5.00	0.967	< 5.70	0.979	< 6.00	0.55	6.65	0.979	< 5.70	0.07	> 7.70	0.209	6.86	0.849	< 4.70	0.705	8.47	0.622	7.43	0.982	< 5.00	0.704	6.27	0.744	7.32	0.941	< 5.99	0.823	5.71	0.963	< 4.80
BE-13 (lymphoblastic leukaemia, suspension)	0.875	5.06	0.907	< 5.70	0.984	< 6.00	0.701	6.25	0.987	< 5.70	0.021	> 7.70	0.167	6.88	0.846	4.88	0.767	8.36	0.77	7.04	0.987	< 5.00	0.82	5.97	0.697	7.56	0.984	< 5.99	0.977	< 5.59	0.969	< 4.80
GR-ST (lymphoblastic leukaemia, suspension)	0.722	5.51	0.97	< 5.70	0.907	< 6.00	0.656	6.32	0.969	< 5.70	0.035	> 7.70	0.375	6.28	0.882	< 4.70	0.925	< 7.90	0.857	< 6.59	0.926	< 5.00	0.755	6.09	0.751	7.30	0.976	< 5.99	0.932	< 5.59	0.917	< 4.80
MZ1-PC (pancreas, adherent)	0.867	< 5.00	0.978	< 5.70	0.977	< 6.00	0.586	6.53	0.974	< 5.70	0.04	> 7.70	0.313	6.49	0.853	< 4.70	0.586	8.84	0.639		0.98	< 5.00	0.543	6.77	0.635	7.68	0.949	< 5.99	0.793	5.83	0.965	< 4.80

pIC50: −log10 of the molar value. Lines with a small IC50 respond at low doses; where the fit passes the top or lowest dose, that dose stands as a limit. AUC is the area under the same curve over the 256-fold range up to the top dose, as a fraction; it is 1 without any effect and falls as sensitivity rises. For some of these results: The top dose, if marked as inferred, is not printed in the source and was worked back from the curve model. For some of these results: Where an entry number is given, a second screen of the drug exists; the two often differ.
